Laboratory results taken from PubChem BioAssay AID588342 (National Center for Advancing Translational Sciences (NCATS), 2011).
The whole screen tested about 360,000 compounds, of which about 25,000 (6.9%) were called active. Inconclusive results, whose numbers are uncertain, are shown with a selection of clear calls. The call rests on the fitted dose curve; in most records, active means well fitted inhibition curve with a large enough effect; inconclusive means small, poorly fitted or top-dose-only effect; inactive means flat fitted curve, though single readings scatter. Potencies beside an inconclusive call are fits to weak or partial responses and may not hold up.

biological target: Luciferin 4-monooxygenase (Photinus pyralis) (UniProt P08659); test: qHTS profiling assay for firefly luciferase inhibitor/activator using purifed enzyme and Km concentrations of substrates (counterscreen for miR-21 project); conditions: purified FLuc, luminescence inhibition; series mostly up to 57.5 µM; activity change, negative = inhibition: at the top concentration; further: nearly all actives have a fitted effect of over 55% in size;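 on activity change, negative = inhibition: plate controls were vehicle for no effect and reference inhibitor for full effect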
Sequence of UniProt P08659 (P08659 whole entry, looked up): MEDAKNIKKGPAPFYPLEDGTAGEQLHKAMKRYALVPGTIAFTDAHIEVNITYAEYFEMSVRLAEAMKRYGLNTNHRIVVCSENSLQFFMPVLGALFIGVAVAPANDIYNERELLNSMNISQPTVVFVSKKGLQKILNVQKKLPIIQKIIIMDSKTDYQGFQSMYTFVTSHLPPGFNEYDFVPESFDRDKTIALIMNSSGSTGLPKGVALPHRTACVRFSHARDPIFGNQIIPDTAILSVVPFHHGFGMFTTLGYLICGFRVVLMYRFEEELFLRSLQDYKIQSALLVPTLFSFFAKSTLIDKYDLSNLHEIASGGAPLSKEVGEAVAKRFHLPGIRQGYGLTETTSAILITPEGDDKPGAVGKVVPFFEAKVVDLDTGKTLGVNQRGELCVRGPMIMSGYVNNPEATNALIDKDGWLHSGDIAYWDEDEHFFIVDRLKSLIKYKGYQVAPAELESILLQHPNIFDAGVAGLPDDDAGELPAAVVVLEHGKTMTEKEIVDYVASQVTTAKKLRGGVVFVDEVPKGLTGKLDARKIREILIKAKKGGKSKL
Outline: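 Purified P. pyralis luciferase, 10 nM final, with Km-level 10 uM D-luciferin and 10 uM ATP in 50 mM Tris acetate pH 7.5, 10 mM Mg acetate, 0.01% Tween-20, 0.05% BSA; 6-point qHTS titration about 60 µM downward; luminescence read.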
Potency means the concentration at half of the fitted maximal effect; tags describe the fitted curve by direction and shape.

Compound	activity change, negative = inhibition	Potency
Cc1ccc(C)c(Cn2c3ccccc3c3cnn(CC(=O)NC(C)c4ccccc4)c(=O)c32)c1 (configuration not stated)	inactive: -6.08%	–
CC(=O)c1ccc(N2CCN(C(=O)c3cccs3)CC2)c(F)c1	inactive: 3.28%	–
O=C(NCC1CCCO1)c1cc2c(s1)CCCC2 (configuration not stated)	–	active: 12 µM
Cc1cc(NC(=O)COC(=O)C2=COCCO2)c([N+](=O)[O-])cc1C	–	inconclusive: 26.9 µM [inhibitor, partial curve]
O=C(Nc1ccccc1F)c1ccc(CN2CCc3ccccc3C2)cc1	–	inconclusive: 30.1 µM [inhibitor, partial curve, poor fit]
Cn1ccnc1SCC(=O)c1ccc(O)cc1	inactive: -17.6%	–
CCCS(=O)(=O)N1CCC(n2c(C(F)(F)F)nc3cccnc32)CC1	inactive: -6.09%	–
Cc1ccc(C(=O)Cn2nnc3ccccc32)cc1	–	active: 5.36 µM
CCC(NC(=S)Nc1ccccc1)C(=O)O (configuration not stated)	–	inconclusive: 8.49 µM [inhibitor, single point]
Cc1ccc(C(=O)Nc2nc(-c3ccccc3)ns2)cc1	–	inconclusive: 5.36 µM [inhibitor, partial curve]
O=C(COC(=O)c1ccc2c(c1)OCO2)Nc1ccccc1F	–	inconclusive: 19 µM [inhibitor, partial curve, poor fit]
Cc1ccc(NC(=O)CSc2nnc(C)c(=O)[nH]2)cc1C	–	inconclusive: 26.9 µM [inhibitor, partial curve, poor fit]
C(=N\Nc1nc2ccccc2[nH]1)/c1cccs1	–	active: 3.79 µM
CC(C)CCn1cnc2c(cnn2-c2ccc(F)cc2)c1=O	–	inconclusive: 21.3 µM [inhibitor, partial curve, poor fit]
COc1ccc(/C=N/NC(=O)c2ccc(COCC(F)(F)C(F)F)cc2)cc1	–	inconclusive: 9.53 µM [inhibitor, partial curve, poor fit]
Cc1ccc(/C=C2/C(=O)c3ccc(C(=O)O)cc3C2=O)o1	–	active: 2.69 µM
COc1ccc(/C=C2/SC(=S)N(Cc3ccccc3)C2=O)cc1O	–	inconclusive: 23.9 µM [inhibitor, partial curve, poor fit]
CCOc1ccccc1CNC(=O)c1cc(-c2ccc(C)c(C)c2)nc2ccccc12	–	inconclusive: 2.69 µM [inhibitor, full curve]
CCN(CC)c1ccc(/C=N/NC(=O)CC(C)C)cc1	–	inconclusive: 21.3 µM [inhibitor, single point]
CCOc1ccccc1NC(=O)COc1ccc(S(=O)(=O)NC2CCCCC2)cc1	–	active: 8.49 µM
NC(=O)c1oc2ccccc2c1NC(=O)c1nc2ccccc2s1	–	inconclusive: 1.9 µM [inhibitor, full curve]
CCn1c(CN2CCCCC2)nc2cc(NC(=O)c3ccc([N+](=O)[O-])cc3)ccc21	inactive: 0.329%	–
CCc1nnc(NS(=O)(=O)c2ccc(NC(=S)NC(=O)c3cccs3)cc2)s1	–	inconclusive: 33.8 µM [inhibitor, single point]
CCc1ccc(-n2c(CCC(=O)O)ccc2-c2ccc(F)cc2)cc1	–	inconclusive: 12 µM [inhibitor, partial curve]

Compound	activity change, negative = inhibition	Potency
CC(=O)c1ccc(-c2ccc(C(=O)NCC(c3ccc(F)cc3)N3CCOCC3)o2)cc1 (configuration not stated)	–	inconclusive: 37.9 µM [inhibitor, partial curve, poor fit]
CCOc1ccc2nc(SCc3ccc(F)cc3)sc2c1	–	inconclusive: 23.9 µM [inhibitor, partial curve]
C=CCn1c(SCC(=O)Nc2ccc(N3CCOCC3)cc2)nnc1-c1ccco1	–	inconclusive: 23.9 µM [inhibitor, partial curve]
Cc1cc(C(=O)N/N=C/C=C/c2ccc3c(c2)OCO3)n[nH]1	–	active: 15.1 µM
COc1ccc(-c2c(C#Cc3ccsc3)c3ccccc3n2C)cc1	–	inconclusive: 37.9 µM [inhibitor, single point]
Cc1cc(Cl)ccc1NC(=O)C1CCN(c2nnc(-n3c(C)ccc3C)s2)CC1	inactive: 2.62%	–
Cc1c(Cl)cnc(NC(=O)COC(=O)CCc2nc3ccccc3s2)c1Cl	inactive: -0.0704%	–
Cn1nccc1NC(=O)Nc1cccc([N+](=O)[O-])c1	inactive: 2.69%	–
COc1ccccc1OCCn1nnc2ccccc21	–	inconclusive: 26.9 µM [inhibitor, single point]
O=C1N=C(N2CCCCC2)S/C1=C\c1ccccc1F	–	inconclusive: 15.1 µM [inhibitor, partial curve]
Cc1ccc(C(=O)c2coc3ccc(O)cc23)cc1	–	active: 1.07 µM
CN(C)c1ccnc(Oc2ccc(C(C)(C)C)cc2)c1C#N	–	inconclusive: 26.9 µM [inhibitor, single point]
Nc1nccnc1C(=O)OCC(=O)NCCc1ccc(S(N)(=O)=O)cc1	inactive: 3.4%	–
O=C(Nc1ccccc1Cl)Nc1cccnc1Cl	–	inconclusive: 37.9 µM [inhibitor, single point]
CN(C)C(=S)N=Nc1[nH]c2ccccc2c1O	–	inconclusive: 21.3 µM [inhibitor, single point]
CCn1c(SCC(=O)Nc2nccs2)nnc1-c1ccc(S(=O)(=O)N2CCCCCC2)cc1	inactive: 4.25%	–
CCCCN(C)CCNC(=O)c1ccc2c(c1)NC(=O)CN2	inactive: 0.532%	–
Cc1cccc(OCC(=O)Nc2nnc(-c3ccco3)s2)c1	–	inconclusive: 23.9 µM [inhibitor, partial curve, poor fit]
O=C(CSc1ncn[nH]1)Nc1nnc(-c2ccccc2)s1	–	active: 21.3 µM
Cc1ccc(-n2cc(CN3CCC(O)(c4ccccn4)CC3)c(-c3ccc(F)cc3)n2)cc1	–	active: 16.9 µM
Cc1cccc(C(=O)Nc2nnc(SCC(=O)Nc3ccc4c(c3)oc3ccccc34)s2)c1	–	inconclusive: 2.39 µM [inhibitor, partial curve, poor fit]
Cc1nc(NC(=S)NC(=O)c2ccccc2)sc1C(=O)N(C)C	–	inconclusive: 37.9 µM [inhibitor, single point]
COc1ccc2c(c1)CCc1cc(C(=O)N3CCN(c4ccc(N5CCOCC5)nn4)CC3)sc1-2	–	inconclusive: 10.7 µM [inhibitor, partial curve]
